# Measured values as given in the supplement of paper PMC11741623.
# The list shows a part of the results. Interaction screen of human proteins with wild-type SARS-CoV-2 proteins by split-DHFR complementation in yeast, 1 µg/mL methotrexate. Value = fitness of the pair (three or more lineages) minus that of the viral protein without a human partner, on a scale set by negative (0) and fused positive (1) controls, mean of up to three cultures; higher = more likely to interact. Active = false discovery rate below 0.05 (one-sided t-test) in at least one culture. Nearly all pairs are not hits, and differences among them are mostly noise (correlation between cultures about 0.3); most hits were seen in one culture only. Human sequences are the Swiss-Prot entries looked up by gene name; the clone may be another isoform. NSP2 values were corrected by the authors for a growth advantage. Listed are human proteins with a hit and a random twelfth of the others.
# B1: TAS2R8, Q9NYW2 (protein)
# chain: MFSPADNIFIILITGEFILGILGNGYIALVNWIDWIKKKKISTVDYILTNLVIARICLISVMVVNGIVIVLNPDVYTKNKQQIVIFTFWTFANYLNMWITTCLNVFYFLKIASSSHPLFLWLKWKIDMVVHWILLGCFAISLLVSLIAAIVLSCDYRFHAIAKHKRNITEMFHVSKIPYFEPLTLFNLFAIVPFIVSLISFFLLVRSLWRHTKQIKLYATGSRDPSTEVHVRAIKTMTSFIFFFFLYYISSILMTFSYLMTKYKLAVEFGEIAAILYPLGHSLILIVLNNKLRQTFVRMLTCRKIACMI
# B2: TMEM129, A0AVI4 (protein)
# chain: MDSPEVTFTLAYLVFAVCFVFTPNEFHAAGLTVQNLLSGWLGSEDAAFVPFHLRRTAATLLCHSLLPLGYYVGMCLAASEKRLHALSQAPEAWRLFLLLAVTLPSIACILIYYWSRDRWACHPLARTLALYALPQSGWQAVASSVNTEFRRIDKFATGAPGARVIVTDTWVMKVTTYRVHVAQQQDVHLTVTESRQHELSPDSNLPVQLLTIRVASTNPAVQAFDIWLNSTEYGELCEKLRAPIRRAAHVVIHQSLGDLFLETFASLVEVNPAYSVPSSQELEACIGCMQTRASVKLVKTCQEAATGECQQCYCRPMWCLTCMGKWFASRQDPLRPDTWLASRVPCPTCRARFCILDVCTVR
# B3: WDR27, A2RRH5 (protein)
# chain: MENPQDIFSSNGGCLSDIVIEKYLVESKESVSHVQLACSMQDCAFPLDGTELCIWNTKDPSHQLLILRGHHQPITAMAFGNKVNPLLICSASLDYVIMWNLDECREKVLQGLVPRGTVMGSLLGKVLCLQLSLDDHVVAVCAGNKIFMLDIETQAVRAELQGHLGPVTAVEFCPWRAGTLISASEDRGFKVWDHCTGSLIYSSSVLSAYPLLSLFIDAESRQLVTGCADGQLWIFSLMDGHHYRRVARVDLRKKTETFSTRRVKSGLCSQPEESQLPSTSALGKGEQVEVTFPVLRLAPCDLSLIPNSACGCLSSENTRCVWIGSSVGLFVFNLANLEVEAALYYKDFQSLSILLAGSCALRNRTADQKVLCLLASLFGGKIAVLEINPAALVRAQQCPSMGQSLSVPASSCVLPTSPLYLGIAKEKSTKAASEQRRAARNVMKDQRLVFHSKVRSSGYASAPHVTMFSPKTNIKSEGKGSSRSRSSCAREAYPVECAVPTKPGPQVAAAPTCTRVCCIQYSGDGQWLACGLANHLLLVFDASLTGTPAVFSGHDGAVNAVCWSQDRRWLLSAARDGTLRMWSARGAELALLLGKDMFSKPIQSAQFYYIDAFILLSSGPEFQLLRYHIDTCKDEIKRYKQKSKSKLICRLSTTGAVDMTSLSAVNDFYSHIVLAAGRNRTVEVFDLNAGCSAAVIAEAHSRPVHQICQNKGSSFTTQQPQAYNLFLTTAIGDGMRLWDLRTLRCERHFEGHPTRGYPCGIAFSPCGRFAACGAEDRHAYVYEMGSSTFSHRLAGHTDTVTGVAFNPSAPQLATATLDGKLQLFLAE
# B4: HMGB2, P26583 (protein)
# chain: MGKGDPNKPRGKMSSYAFFVQTCREEHKKKHPDSSVNFAEFSKKCSERWKTMSAKEKSKFEDMAKSDKARYDREMKNYVPPKGDKKGKKKDPNAPKRPPSAFFLFCSEHRPKIKSEHPGLSIGDTAKKLGEMWSEQSAKDKQPYEQKAAKLKEKYEKDIAAYRAKGKSEAGKKGPGRPTGSKKKNEPEDEEEEEEEEDEDEEEEDEDEE
# Biological target: SARS-CoV-2 E
# Experiment: yeast fitness gain over the viral ORF with no human partner (scaled fitness); higher = more likely to interact
# Experimental: (§1)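 Split mouse DHFR complementation in pooled diploid yeast: human ORFeome clones carry one fragment and viral ORFs the other; barcoded lineages compete in 1 µg/mL methotrexate and fitness is read by barcode sequencing in up to three cultures.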
row,Binder,yeast fitness gain
1,B1,inactive: -0.47
2,B2,inactive: -0.0779
3,B3,inactive: -0.075
4,B4,inactive: 0.121

# Biological target: SARS-CoV-2 M
# Experiment: as above
# Experimental: as §1
row,Binder,yeast fitness gain
1,B1,inactive: 0.0211
2,B2,inactive: -0.131
3,B3,inactive: 0.0976
4,B4,inactive: -0.1

# Biological target: SARS-CoV-2 N
# Experiment: as above
# Experimental: as §1
row,Binder,yeast fitness gain
1,B1,inactive: -0.0764
2,B2,inactive: -0.059
3,B4,inactive: 0.000305

# Biological target: SARS-CoV-2 NSP1
# Experiment: as above
# Experimental: as §1
row,Binder,yeast fitness gain
1,B1,inactive: 0.0923
2,B2,inactive: 0.0231
3,B4,inactive: 0.0221

# Biological target: SARS-CoV-2 NSP10
# Experiment: as above
# Experimental: as §1
row,Binder,yeast fitness gain
1,B1,inactive: 0.0119
2,B2,inactive: 0.117
3,B3,inactive: 0.0535
4,B4,inactive: 0.0118

# Biological target: SARS-CoV-2 NSP12
# Experiment: as above
# Experimental: as §1
row,Binder,yeast fitness gain
1,B1,inactive: -0.0308
2,B2,inactive: 0.109
3,B3,inactive: -0.0419
4,B4,inactive: -0.078

# Biological target: SARS-CoV-2 NSP13
# Experiment: as above
# Experimental: as §1
row,Binder,yeast fitness gain
1,B1,inactive: 0.0319
2,B2,inactive: 0.112
3,B3,inactive: -0.134
4,B4,inactive: -0.0529

# Biological target: SARS-CoV-2 NSP14
# Experiment: as above
# Experimental: as §1
row,Binder,yeast fitness gain
1,B1,inactive: 0.0954
2,B4,inactive: -0.445

# Biological target: SARS-CoV-2 NSP15
# Experiment: as above
# Experimental: as §1
row,Binder,yeast fitness gain
1,B1,inactive: -0.0625
2,B4,inactive: -0.0784

# Biological target: SARS-CoV-2 NSP16
# Experiment: as above
# Experimental: as §1
row,Binder,yeast fitness gain
1,B1,inactive: -0.117
2,B3,inactive: -0.344

# Biological target: SARS-CoV-2 NSP2
# Experiment: as above
# Experimental: as §1
row,Binder,yeast fitness gain
1,B1,inactive: -0.14
2,B2,inactive: -0.0732
3,B3,inactive: -0.26
4,B4,active: 0.547

# Biological target: SARS-CoV-2 NSP4
# Experiment: as above
# Experimental: as §1
row,Binder,yeast fitness gain
1,B1,inactive: 0.0958
2,B2,inactive: -0.00658
3,B3,inactive: -0.000891
4,B4,inactive: -0.175

# Biological target: SARS-CoV-2 NSP5
# Experiment: as above
# Experimental: as §1
row,Binder,yeast fitness gain
1,B1,inactive: 0.0108
2,B2,inactive: -0.188
3,B3,inactive: 0.000105
4,B4,inactive: 0.0505

# Biological target: SARS-CoV-2 NSP6
# Experiment: as above
# Experimental: as §1
row,Binder,yeast fitness gain
1,B1,inactive: -0.0746
2,B4,inactive: -0.0484

# Biological target: SARS-CoV-2 NSP7
# Experiment: as above
# Experimental: as §1
row,Binder,yeast fitness gain
1,B1,inactive: -0.00947
2,B2,inactive: 0.0133
3,B4,inactive: 0.0157

# Biological target: SARS-CoV-2 NSP8
# Experiment: as above
# Experimental: as §1
row,Binder,yeast fitness gain
1,B1,inactive: 0.0276
2,B2,inactive: 0.116
3,B4,inactive: 0.0629

# Biological target: SARS-CoV-2 NSP9
# Experiment: as above
# Experimental: as §1
row,Binder,yeast fitness gain
1,B1,inactive: 0.00185
2,B3,inactive: 0.107
3,B4,inactive: -0.0129

# Biological target: SARS-CoV-2 ORF10
# Experiment: as above
# Experimental: as §1
row,Binder,yeast fitness gain
1,B1,inactive: 0.0472
2,B2,inactive: 0.041
3,B4,inactive: 0.00123

# Biological target: SARS-CoV-2 ORF3A
# Experiment: as above
# Experimental: as §1
row,Binder,yeast fitness gain
1,B1,inactive: 0.0587
2,B2,inactive: 0.0633
3,B4,inactive: 0.0493

# Biological target: SARS-CoV-2 ORF3B
# Experiment: as above
# Experimental: as §1
row,Binder,yeast fitness gain
1,B1,inactive: 0.0119
2,B2,inactive: -0.076
3,B4,inactive: 0.0143

# Biological target: SARS-CoV-2 ORF6
# Experiment: as above
# Experimental: as §1
row,Binder,yeast fitness gain
1,B1,inactive: 0.0277
2,B2,inactive: 0.0483
3,B4,inactive: 0.00848

# Biological target: SARS-CoV-2 ORF7A
# Experiment: as above
# Experimental: as §1
row,Binder,yeast fitness gain
1,B1,inactive: 0.0693
2,B2,inactive: -0.00201
3,B4,inactive: -0.00364

# Biological target: SARS-CoV-2 ORF7B
# Experiment: as above
# Experimental: as §1
row,Binder,yeast fitness gain
1,B1,inactive: -0.0423
2,B2,inactive: 0.00766
3,B4,inactive: -0.00553

# Biological target: SARS-CoV-2 ORF8
# Experiment: as above
# Experimental: as §1
row,Binder,yeast fitness gain
1,B1,inactive: 0.06
2,B2,inactive: -0.0174
3,B4,inactive: 0.022

# Biological target: SARS-CoV-2 ORF9B
# Experiment: as above
# Experimental: as §1
row,Binder,yeast fitness gain
1,B1,inactive: 0.0231
2,B2,inactive: -0.0523
3,B3,inactive: 0.0142
4,B4,inactive: -0.00332

# Biological target: SARS-CoV-2 ORF9Bwu (the 73-codon ORF)
# Experiment: as above
# Experimental: as §1
row,Binder,yeast fitness gain
1,B1,inactive: 0.122
2,B2,inactive: 0.00999
3,B4,inactive: -0.0908

# Biological target: SARS-CoV-2 S
# Experiment: as above
# Experimental: as §1
row,Binder,yeast fitness gain
1,B1,inactive: 0.0386
2,B2,inactive: 0.0291
3,B3,inactive: 0.00921
4,B4,inactive: 0.0158
